Assay results as given in PubChem BioAssay AID887 (National Center for Advancing Translational Sciences (NCATS), 2007).
Out of some 74,000 compounds screened, about 1,100 (1.5%) were called active. Inconclusive results, whose numbers are uncertain, are shown with a selection of clear calls. Calls follow the shape of the dose curve; as a rule, active = well fitted inhibition curve with a large enough effect; inconclusive = small, poorly fitted or top-dose-only effect; inactive = no such curve, though single readings can be large or run the other way. Potencies of inconclusive entries are left out as doubtful fits.

These molecules were tested against Polyunsaturated fatty acid lipoxygenase ALOX15 (Homo sapiens) (UniProt P16050) (assay: qHTS Assay for Inhibitors of 15-hLO (15-human lipoxygenase)). Settings: purified 15hLO-1, xylenol orange hydroperoxide absorbance; activity change, negative = inhibition: at 57.1 µM (top of the series) unless noted.
Sequence of UniProt P16050 (P16050 whole entry, looked up): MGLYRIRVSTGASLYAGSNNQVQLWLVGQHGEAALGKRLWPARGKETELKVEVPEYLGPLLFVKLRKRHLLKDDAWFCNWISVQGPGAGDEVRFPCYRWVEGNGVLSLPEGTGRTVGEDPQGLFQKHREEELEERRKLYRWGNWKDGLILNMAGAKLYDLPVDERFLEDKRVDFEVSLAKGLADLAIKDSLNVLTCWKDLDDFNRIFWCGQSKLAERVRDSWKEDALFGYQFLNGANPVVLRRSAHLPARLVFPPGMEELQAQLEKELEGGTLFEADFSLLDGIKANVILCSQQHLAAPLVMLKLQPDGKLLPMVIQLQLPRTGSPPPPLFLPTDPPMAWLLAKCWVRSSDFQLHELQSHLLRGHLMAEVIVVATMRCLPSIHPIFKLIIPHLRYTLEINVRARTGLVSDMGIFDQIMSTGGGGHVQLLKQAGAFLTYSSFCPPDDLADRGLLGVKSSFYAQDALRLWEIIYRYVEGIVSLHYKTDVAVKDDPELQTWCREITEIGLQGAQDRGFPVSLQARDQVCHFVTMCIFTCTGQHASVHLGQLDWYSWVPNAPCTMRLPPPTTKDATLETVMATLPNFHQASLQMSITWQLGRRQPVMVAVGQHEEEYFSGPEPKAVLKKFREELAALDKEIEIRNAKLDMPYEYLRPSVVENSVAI
Outline: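 Hydroperoxide formed from arachidonic acid (50 uM) by purified human 15hLO-1 (40 nM) oxidizes ferrous iron, and the ferric-xylenol orange complex is read at 573 versus 405 nm. Compounds were preincubated 15 min; reaction ran 6 min at room temperature.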
% is scaled to controls: 0 for no effect and ±100 for the full control effect; potency is read from the fitted curve at half-maximal effect; tags tell the direction and shape of the fitted curve.
Also: nearly all actives have a fitted effect of over 55% in size.

SMILES	activity change, negative = inhibition	Potency
COc1ccccc1-c1nccc(NCc2cccc(C)c2)n1	inactive: -23%	
CCOc1ccc(-c2n[nH]c(C)c2Oc2ccc(OC)cc2)c(O)c1		inconclusive [inhibitor, partial curve]
O=C(CSc1ncn[nH]1)c1ccco1		inconclusive [inhibitor, single point]
O=C(c1ccc2nc(-c3ccco3)c(-c3ccco3)nc2c1)N1CCN(c2ccccc2)CC1		active: 3.16 µM
O=C(C1CCN(S(=O)(=O)c2cccc3cccnc23)CC1)N1CC=C(c2ccccc2)CC1		inconclusive [inhibitor, partial curve]
COc1ccccc1CNc1ccnc(-c2cccnc2)n1		inconclusive [inhibitor, single point]
CCNc1nc(-c2ccc(Cl)cc2)cs1		inconclusive [inhibitor, single point]
CCOc1ccc(-n2c(=O)c3c4c(sc3n(CC(=O)NCc3ccco3)c2=O)CCC4)cc1	inactive: -8.87%	
C[C@](N)(C(=O)O)c1ccc(-c2nn[nH]n2)cc1	inactive: -25.3% [at 25.6 µM]	
CCCCn1c(SCC(=O)NC(=O)NCc2ccco2)nc2cc(S(N)(=O)=O)ccc21		active: 10 µM
Nc1ncnc2nc(-c3ccc(N4CCOCC4)nc3)cc(-c3cccc(Br)c3)c12		active: 10 µM
CN(Cc1ccco1)c1ncnc2ccc(-c3cccnc3)cc12		inconclusive [inhibitor, single point]
CCOC(=O)N1CCC2(CC1)CC(=O)c1c(ccc3oc(C(=O)O)c(C)c13)O2	inactive: -4.21%	
CN(C)CN1CSC(=S)N(CN(C)C)C1		inconclusive [inhibitor, partial curve]
O=C(NCCc1csc(-c2cccnc2)n1)c1ccc(Br)o1		inconclusive [inhibitor, single point]
CNc1ncnc2c1ncn2[C@H]1C[C@@H](OP(=O)(O)O)[C@H](COP(=O)(O)O)O1	inactive: 4.63%	
CC[C@]1(O)C[C@H]2CN(CCc3c([nH]c4ccccc34)[C@](C(=O)OC)(c3cc4c(cc3OC)N(C)[C@@H]3[C@](O)(C(=O)OC)[C@H](OC(C)=O)[C@]5(CC)C=CCN6CC[C@]43[C@@H]65)C2)C1		inconclusive [inhibitor, partial curve]
O=C(O[C@@H]1Cc2c(O)cc(O)cc2OC1c1ccc(O)c(O)c1)c1cc(O)c(O)c(O)c1 (some centres not stated)		active: 6.31 µM
CCCC(=O)N(c1ccc(OCC)cc1)C1C=CS(=O)(=O)C1 (configuration not stated)	inactive: 0.304%	
Cc1nc2cc(-c3cccc(Cl)c3)nn2c(N2CCN(C(=O)c3ccco3)CC2)c1C	inactive: 2.71%	
CCOC(=O)c1ccc(NCc2ccc3c(c2)OCO3)cc1		inconclusive [inhibitor, single point]
O=S(=O)(Nc1ccc2c(c1)OCO2)c1ccc(Br)s1		active: 25.1 µM
O=C(Cn1ncn2c(cc3ccccc32)c1=O)NCc1ccco1		inconclusive [inhibitor, partial curve]
Cc1ccc(-n2nnnc2SCC(=O)N2c3ccccc3NC(=O)C2(C)C)cc1	inactive: -5.94%	

SMILES	activity change, negative = inhibition	Potency
O=c1c2cnn(-c3ccccc3Cl)c2ncn1Cc1cccnc1	inactive: 4.38%	
COC(=O)C1CCN(C(=O)CSc2nnc(-c3ccncc3)o2)CC1		inconclusive [inhibitor, full curve]
COc1cc(Cn2c(-c3nonc3N)nc3ccccc32)ccc1C	inactive: -14%	
CSC1=C(C#N)C(c2cccc(Br)c2)CC(=O)N1 (configuration not stated)	inactive: -17.2%	
CO[C@H]1C=CO[C@]2(C)Oc3c(C)c(O)c4c(O)c(c5c(c4c3C2=O)NC2(CCN(CC(C)C)CC2)N=5)=NC(=O)C(C)=CC=C[C@@H](C)[C@@H](O)[C@@H](C)[C@@H](O)[C@@H](C)[C@@H](OC(C)=O)[C@@H]1C	inactive: 13.6% [at 25.6 µM]	
O=C(Nc1ccc(C2CCCCC2)cc1)C1CCN(c2ncccn2)CC1		inconclusive [inhibitor, full curve, poor fit]
O=C(CC1Nc2ccccc2NC1=O)NCC1COc2ccccc2O1 (configuration not stated)		inconclusive [inhibitor, single point]
COc1ccc(C2CC(=O)C3=C(C2)NC(C)=C(C#N)C3c2ccc(N(C)C)cc2)cc1 (configuration not stated)		inconclusive [inhibitor, full curve]
Cc1ccccc1CS(=O)(=O)c1nnc([C@H](CC(C)C)NC(=O)OC(C)(C)C)o1		inconclusive [inhibitor, partial curve]
COc1ccc(-c2noc(Cc3ccc(Cl)cc3)n2)cc1OC	inactive: -26%	
COC(=O)CSc1nc(-c2ccccc2)cc(-c2ccco2)c1C#N		inconclusive [inhibitor, single point]
CCn1cnc2sc(C(=O)N(Cc3ccc(N(C)C)cc3)Cc3ccco3)c(C)c2c1=O	inactive: -9.65%	
CC(=O)N(CCc1ccccc1C)Cc1cc2cc3c(cc2[nH]c1=O)OCO3		inconclusive [inhibitor, partial curve]
COc1cc(-c2cc(OC)c3c(C)oc(C)c3c(=O)c2)ccc1O		active: 25.1 µM
COc1ccccc1N1C(=O)N(C(C)=O)C2C1Nc1ccccc1N2C (configuration not stated)		inconclusive [inhibitor, partial curve]
CN1CCN(c2nc3c(c(=O)n(C)c(=O)n3C)n2CCSc2nc3ccccc3s2)CC1		active: 1.58 µM
CCOC(=O)c1cc(-c2cccs2)nc2onc(C)c12	inactive: 11.8%	
COc1cccc(-c2cn3nc(C)c(C)nc3n2)c1	inactive: -8.3%	
COc1cccc(-c2cc(C(=O)Nc3cccc(O)c3)no2)c1	inactive: -15.4%	
Cc1ccc(NC2c3ncccc3C(=O)N2c2ccccc2C)cc1C (configuration not stated)		active: 25.1 µM
O=C(Nc1ccc2c(c1)nc1n2CCN(C2CCCCC2)C1)c1ccco1	inactive: -28.8%	
CC(O)CN1C(=O)C(CC(=O)Nc2ccc(Cl)cc2)SC1=Nc1ccccc1 (configuration not stated)		inconclusive [inhibitor, partial curve]
O=C(CN1c2cccc3cccc(c23)S1(=O)=O)NCc1ccc2c(c1)OCO2	inactive: -11.7% [at 11.4 µM]	
